{
  "source": "patent US10385108B2",
  "about": "“Peptide analogs of alpha-melanocyte stimulating hormone” (Genzyme Corporation, priority 2008, dated 2019)",
  "key": {"C57BL/6 mice [1]": {"system": "C57BL/6 mice", "assay": "MOG35-55 induced EAE model", "assay_type": "in vivo", "settings": "Example 11; peptides 100 μg/mouse, dexamethasone 2 mg/kg, i.p. daily from day 10"}, "C57BL/6 mice [2]": {"system": "C57BL/6 mice", "assay": "LPS inflammation mouse model, serum cytokines", "assay_type": "in vivo", "settings": "i.p. 30 min after LPS; peptides 5 to 0.156 mg/kg, dexamethasone 2 mg/kg; serum at 2 h", "experimental": "Male C57BL/6 mice were challenged with LPS (1 ug/mouse), i.p. After 30 min mice were treated with dexamethasone (2 mg/kg; Sigma), RI-α-MSH analog 891, or RI-α-MSH. At 2 hrs after LPS challenge, mice were bled for serum. Cytokine analysis was measured by flow cytometry with a cytometric bead array kit (BD Biosciences).\nC57BL/6 mice were injected with LPS, i.p. and 30 minutes later native α-MSH or RI α-MSH analog 891 was administered i.p. at doses ranging from 5 mg/kg to 0.156 mg/kg. RI α-MSH analog 891 is an analog of RI α-MSH in which d-Cha and hsiiss D-amino acids were added to the core peptide sequence. […] MCP-1 was not affected by native α-MSH treatment (FIG. 16B)."}, "[3]": {"system": "B16-F1 murine melanoma cells", "assay": "Intracellular cAMP in B16-F1 melanoma cells", "assay_type": "cell-based", "settings": "10^-4-10^-11 M, 30 min, IBMX", "experimental": "B16-F1 (melanoma cell line) cells from American Type Culture Collection (Manassas, Va.) were seeded into flat bottom 96 well plates at 5×10^4/well and cultured overnight in DMEM (Cambrex, Walkersville, Md.) supplemented with 2 mM glutamine, antibiotics (100 U/ml penicillin and 100 […]) and 10% heat-inactivated fetal bovine serum (Invitrogen, Grand Island, N.Y.). […] Cells were lysed and intracellular cAMP levels were measured by an enzyme immunoassay kit (Amersham Biosciences, Piscataway, N.J.). Forskolin (Sigma, St. Louis, Mo.) at 100 μM served as positive controls.\ncAMP levels in B16-F1 melanoma cells after treatment with native α-MSH, RI α-MSH, or a scrambled control peptide were examined. The […] melanoma cell line expresses a high number of MCR1 receptors (3000-4000 receptors/cell) compared with macrophages cell lines which express only 100-200 receptors/cell. Therefore we selected to examine the effect of the RI α-MSH treatment on the melanoma cell line. Murine melanoma B16-F1 cells were treated with native α-MSH, RI α-MSH, or control scrambled peptide at concentrations 1 pg/ml-1 μg/ml. After 30 min, cells were lysed and intracellular cAMP was measured by an enzyme immunoassay. […]\nIntracellular cAMP was measured using a cAMP competition Assay Kit (Amersham Biosciences). […]"}, "MC1R": {"target": "MC1R (Homo sapiens, UniProt Q01726)", "sequence (Q01726 whole entry)": "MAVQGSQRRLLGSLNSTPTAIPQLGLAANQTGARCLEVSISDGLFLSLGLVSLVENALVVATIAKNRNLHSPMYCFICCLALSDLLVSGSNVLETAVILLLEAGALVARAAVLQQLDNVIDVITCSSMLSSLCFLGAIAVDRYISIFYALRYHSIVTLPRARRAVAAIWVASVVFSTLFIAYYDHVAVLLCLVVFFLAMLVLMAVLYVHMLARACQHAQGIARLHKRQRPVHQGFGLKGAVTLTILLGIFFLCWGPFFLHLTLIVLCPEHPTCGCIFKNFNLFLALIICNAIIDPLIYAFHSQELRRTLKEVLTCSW", "assay": "Competitive binding with 125I-NDP-MSH, HEK293 membrane preparations, MC1R"}, "B10.RIII mice": {"system": "B10.RIII mice", "experimental": "Female B10.RIII were injected subcutaneously at two sites (between shoulder blades and in pelvic region) with a total of 200 μg interphotoreceptor binding protein peptide (IRBP) 161-180 (New England Peptide; Fitchburg, Mass.), respectively in 2 mg/ml complete Freund's adjuvant (CFA; Sigma, St. Louis, Mo.) with mycobacterium tuberculosis H37Ra (Difco, Detroit, Mich.).\nThe eyes of mice are dilated using one or two drops of Mydriacyl 1% (Alcon; Humacao, Puerto Rico) and rested in a darkened room for approximately 5 min. Mice are manually restrained and the retinas of both eyes are visualized using an indirect ophthalmoscope with a 78 diopter lens. The eyes are scored for inflammation using a progressive scoring system between 0-5. Score 0: Normal retina. Score 1: Vascular inflammation proximal to the optic nerve. Score 2: <5 inflammatory lesions confined to one quadrant of the eye. Score 3: >5 inflammatory lesions in more than one quadrant of the eye. Score 4: Inflammatory lesions are contiguous. Score 5: Retinal detachment. Whole eyes from mice were harvested and placed in PBS. The eyes were embedded in OCT media for frozen fixation. […]\nUveitis was induced in B10.RIII mice with IRBP161-180 and CFA injections. […] Individual weights of the mice were recorded at 4 timepoints throughout the course of disease. […]"}, "MC3R": {"target": "MC3R (Homo sapiens, UniProt P41968)", "sequence (P41968 whole entry)": "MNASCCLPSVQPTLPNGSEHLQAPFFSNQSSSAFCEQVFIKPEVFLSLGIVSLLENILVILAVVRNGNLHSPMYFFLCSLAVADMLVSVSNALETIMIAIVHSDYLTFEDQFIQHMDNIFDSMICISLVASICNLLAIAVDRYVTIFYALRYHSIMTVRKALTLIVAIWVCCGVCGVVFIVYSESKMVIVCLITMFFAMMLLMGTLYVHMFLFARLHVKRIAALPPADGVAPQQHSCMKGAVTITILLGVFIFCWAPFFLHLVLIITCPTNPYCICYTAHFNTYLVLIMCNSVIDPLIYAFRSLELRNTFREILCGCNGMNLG", "assay": "Competitive binding with 125I-NDP-MSH, HEK293 membrane preparations, MC3R", "settings": "MCR panel 1, 3, 4, 5"}, "MC4R": {"target": "MC4R (Homo sapiens, UniProt P32245)", "sequence (P32245 whole entry)": "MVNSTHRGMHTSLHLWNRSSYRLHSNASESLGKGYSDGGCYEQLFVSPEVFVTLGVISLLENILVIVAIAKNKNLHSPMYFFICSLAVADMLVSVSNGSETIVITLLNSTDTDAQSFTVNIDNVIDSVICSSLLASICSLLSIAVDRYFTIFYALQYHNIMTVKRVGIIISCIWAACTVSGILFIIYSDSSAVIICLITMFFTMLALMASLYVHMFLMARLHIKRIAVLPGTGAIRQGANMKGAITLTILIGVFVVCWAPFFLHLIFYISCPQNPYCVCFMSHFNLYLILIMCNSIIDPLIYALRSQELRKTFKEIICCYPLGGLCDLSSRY", "assay": "Competitive binding with 125I-NDP-MSH, HEK293 membrane preparations, MC4R", "settings": "MCR panel 1, 3, 4, 5"}, "MC5R": {"target": "MC5R (Homo sapiens, UniProt P33032)", "sequence (P33032 whole entry)": "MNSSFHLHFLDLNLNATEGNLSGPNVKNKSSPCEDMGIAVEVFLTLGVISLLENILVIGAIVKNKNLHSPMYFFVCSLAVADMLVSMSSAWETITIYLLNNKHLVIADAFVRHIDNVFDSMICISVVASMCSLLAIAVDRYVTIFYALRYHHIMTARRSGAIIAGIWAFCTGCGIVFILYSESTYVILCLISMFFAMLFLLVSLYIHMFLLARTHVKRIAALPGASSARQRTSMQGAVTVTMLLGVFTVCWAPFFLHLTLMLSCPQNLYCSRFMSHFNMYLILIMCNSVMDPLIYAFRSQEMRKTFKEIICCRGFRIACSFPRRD", "assay": "Competitive binding with 125I-NDP-MSH, HEK293 membrane preparations, MC5R", "settings": "MCR panel 1, 3, 4, 5"}},
  "note": "For some of these results: Not every detail of the peptide structures is certain; ends, links or a residue may be inferred. For some of these results: At least one compound was matched to its structure with a doubt left. Some of these results come from one statement about several compounds together. Where a SMILES comes first, the peptide text is derived from it. [ ]: non-standard residue; d: D form. The star is where a group is joined. X1 = CCCCCCCCCCCCCCCCCC(=O)NCCCCCCN*",
  "data": [
    {"smiles": "C[C@@H]1C[C@H]2[C@@H]3CCC4=CC(=O)C=C[C@]4(C)[C@@]3(F)[C@@H](O)C[C@]2(C)[C@@]1(O)C(=O)CO", "note": "[Dexamethasone, dexamethasone, reference compound]", "values": [
      {"measurement": "mean clinical disease score vs PBS (in words)", "setting": "C57BL/6 mice [1]", "value": "reduction in disease scores"},
      {"measurement": "serum MCP-1 vs vehicle (in words)", "setting": "C57BL/6 mice [2]", "value": "suppression"},
      {"measurement": "serum TNF-α vs vehicle (in words)", "setting": "C57BL/6 mice [2]", "value": "suppression"}
    ]},
    {"smiles": "CCCCSCC[C@@H](NC(=O)[C@@H](CCC(=O)O)NC(=O)[C@@H](Cc1c[nH]cn1)NC(=O)[C@@H](Cc1ccccc1)NC(=O)[C@@H](CCCNC(=N)N)NC(=O)[C@@H](Cc1c[nH]c2ccccc12)NC(=O)CNC(=O)[C@@H](CCCCN)NC(=O)[C@H]1CCCN1C(=O)[C@H](NC(C)=O)C(C)C)C(=O)N[C@H](CO)C(=O)N[C@H](Cc1ccc(O)cc1)C(=O)N[C@H](CO)C(N)=O", "note": "[compound 878, vpkGwrfhe(D-buthionine)sys]", "values": [
      {"measurement": "EC50", "setting": "[3]", "value": 130, "unit": "nM"}
    ]},
    {"smiles": "CCCCCCCCCCCCCCCCCC(=O)NCCCCCCNC(=O)[C@@H](Cc1c[nH]cn1)NC(=O)[C@H](Cc1ccccc1)NC(=O)[C@@H](CCCNC(=N)N)NC(=O)[C@@H](Cc1c[nH]c2ccccc12)NC(C)=O", "note": "[compound 882, wrFh] (Ac-[dW][dR]F[dH]-X1)", "values": [
      {"measurement": "Ki", "setting": "MC1R; read-out: Ki MC1R, competition with 125I-NDP-MSH", "value": 120, "unit": "nM"}
    ]},
    {"smiles": "CSCC[C@@H](NC(=O)[C@@H](CCC(=O)O)NC(=O)[C@@H](Cc1c[nH]cn1)NC(=O)[C@H](Cc1ccccc1)NC(=O)[C@@H](CCCNC(=N)N)NC(=O)[C@@H](Cc1c[nH]c2ccccc12)NC(=O)CNC(=O)[C@@H](CCCCN)NC(=O)[C@H]1CCCN1C(=O)[C@H](NC(C)=O)C(C)C)C(=O)N[C@H](CO)C(=O)N[C@H](Cc1ccc(O)cc1)C(=O)N[C@H](CO)C(N)=O", "note": "[compound 884, vpkGwrFhemsys]", "values": [
      {"measurement": "affinity for MC1R compared with parent peptide (in words)", "setting": "MC1R", "value": "reduced the affinity"}
    ]},
    {"smiles": "CCCCSCC[C@@H](NC(=O)[C@@H](CCC(=O)O)NC(=O)[C@@H](Cc1c[nH]cn1)NC(=O)[C@@H](CC1CCCCC1)NC(=O)[C@@H](CCCNC(=N)N)NC(=O)[C@@H](Cc1c[nH]c2ccccc12)NC(=O)CNC(=O)[C@@H](CCCCN)NC(=O)[C@H]1CCCN1C(=O)[C@H](NC(C)=O)C(C)C)C(=O)N[C@H](CO)C(=O)N[C@H](Cc1ccc(O)cc1)C(=O)N[C@H](CO)C(N)=O", "note": "[compound 890, vpkGwr(D-Cha)he(d-Buthionine)sys]", "values": [
      {"measurement": "EC50", "setting": "[3]", "value": 3600, "unit": "nM"}
    ]},
    {"smiles": "CSCC[C@@H](NC(=O)[C@@H](CCC(=O)O)NC(=O)[C@@H](Cc1c[nH]cn1)NC(=O)[C@@H](Cc1ccccc1)NC(=O)[C@@H](CCCNC(=N)N)NC(=O)[C@H](Cc1c[nH]c2ccccc12)NC(=O)CNC(=O)[C@@H](CCCCN)NC(=O)[C@H]1CCCN1C(=O)[C@H](NC(C)=O)C(C)C)C(=O)N[C@H](CO)C(=O)N[C@H](Cc1ccc(O)cc1)C(=O)N[C@H](CO)C(N)=O", "note": "[compound 893, vpkGWrfhemsys]", "values": [
      {"measurement": "affinity for MC1R compared with parent peptide (in words)", "setting": "MC1R", "value": "reduced the affinity"}
    ]},
    {"smiles": "CSCC[C@@H](NC(=O)[C@@H](CCC(=O)O)NC(=O)[C@@H](Cc1c[nH]cn1)NC(=O)[C@@H](Cc1ccccc1)NC(=O)[C@H](CCCNC(=N)N)NC(=O)[C@@H](Cc1c[nH]c2ccccc12)NC(=O)CNC(=O)[C@@H](CCCCN)NC(=O)[C@H]1CCCN1C(=O)[C@H](NC(C)=O)C(C)C)C(=O)N[C@H](CO)C(=O)N[C@H](Cc1ccc(O)cc1)C(=O)N[C@H](CO)C(N)=O", "note": "[compound 894, vpkGwRfhemsys]", "values": [
      {"measurement": "affinity for MC1R compared with parent peptide (in words)", "setting": "MC1R", "value": "reduced the affinity"}
    ]},
    {"smiles": "CSCC[C@@H](NC(=O)[C@@H](CCC(=O)O)NC(=O)[C@H](Cc1c[nH]cn1)NC(=O)[C@@H](Cc1ccccc1)NC(=O)[C@@H](CCCNC(=N)N)NC(=O)[C@@H](Cc1c[nH]c2ccccc12)NC(=O)CNC(=O)[C@@H](CCCCN)NC(=O)[C@H]1CCCN1C(=O)[C@H](NC(C)=O)C(C)C)C(=O)N[C@H](CO)C(=O)N[C@H](Cc1ccc(O)cc1)C(=O)N[C@H](CO)C(N)=O", "note": "[compound 895, vpkGwrfHemsys]", "values": [
      {"measurement": "affinity for MC1R compared with parent peptide (in words)", "setting": "MC1R", "value": "reduced the affinity"}
    ]},
    {"smiles": "CSCC[C@@H](NC(=O)[C@@H](CO)NC(=O)[C@@H](CCCNC(=N)N)NC(=O)[C@@H](CO)NC(=O)[C@@H](CCCCN)NC(C)=O)C(=O)NCC(=O)N[C@@H](C(=O)N[C@H](Cc1ccccc1)C(=O)N1CCC[C@@H]1C(=O)N[C@H](CCC(=O)O)C(=O)N[C@H](Cc1ccc(O)cc1)C(=O)N[C@H](Cc1c[nH]cn1)C(N)=O)C(C)C", "note": "[scrambled peptide, ksrsmgvfpeyh, reference compound] (Ac-[dK][dS][dR][dS][dM]G[dV][dF][dP][dE][dY][dH]-NH2)", "values": [
      {"measurement": "uveitis course (in words)", "setting": "B10.RIII mice; 100 μg/mouse i.p. daily from eye scores of 4", "value": "remained severe"},
      {"measurement": "mice with individual maximum eye scores ≤1", "setting": "B10.RIII mice; 100 μg/mouse i.p. daily, day 23 after disease induction", "value": "none of the mice"},
      {"measurement": "binding to MCR-1 (in words)", "setting": "MC1R; MCR panel 1, 3, 4, 5", "value": "did not bind to any of the melanocortin receptors"},
      {"measurement": "binding to MCR-3 (in words)", "setting": "MC3R", "value": "did not bind to any of the melanocortin receptors"},
      {"measurement": "binding to MCR-4 (in words)", "setting": "MC4R", "value": "did not bind to any of the melanocortin receptors"},
      {"measurement": "binding to MCR-5 (in words)", "setting": "MC5R", "value": "did not bind to any of the melanocortin receptors"}
    ]}
  ]
}
